Experimental data: patent EP4692072A1, “PHOTOCHROMIC COMPOUND, PROPARGYL ALCOHOL COMPOUND, CURABLE COMPOSITION, OPTICAL ARTICLE, LENS, AND SPECTACLES” (TOKUYAMA CORPORATION, priority 2023, dated 2024)
At least one read-out could not be matched to a standard name with certainty.

Columns and labels:
[1] = Photochromic properties of photochromic laminate (plastic lens) prepared by coating method; assay type: physicochemical; conditions: 0.25 mmol per 100 g monomers, after 300 seconds irradiation at 23°C, at the maximum absorption wavelength of the same row
Text: First, the photochromic compound obtained in Example 1, a photoinitiator, and a polymerizable compound were mixed to obtain a curable composition.
Polyethylene glycol dimethacrylate (average molecular weight: 736): 42 parts by mass • Polyethylene glycol dimethacrylate (average molecular weight: 536): 12 parts by mass • Trimethylolpropane trimethacrylate: 38 parts by mass γ-methacryloyloxypropyl trimethoxysilane: 2 parts by mass Glycidyl methacrylate: 1 part by mass
Note that the photochromic compound was added to the curable composition so that the amount of the photochromic compound was 0.25 mmol based on 100 g of the total amount of the radical-polymerizable monomers.
Phenylbis(2,4,6-trimethylbenzoyl)phosphine oxide (photoinitiator: Omnirad 819): 0.3 parts by mass Ethylene bis(oxyethylene) bis[3-(5-tert-butyl-4-hydroxy-m-tolyl)propionate] (stabilizer, Irganox 245): 1 part by mass Bis(1,2,2,6,6-pentamethyl-4-piperidyl) sebacate: 3 parts by mass Leveling agent (L7001) manufactured by Dow Corning Toray Co.,Ltd.: 0.1 part by mass
First, a thiourethane-based plastic lens having a central thickness of 2 mm and a refractive index of 1.60 was prepared as the optical substrate. Note that this thiourethane-based plastic lens was pre-treated by alkaline etching with a 10% sodium hydroxide aqueous solution at 50°C for 5 minutes, followed by sufficient washing with distilled water.
A surface of the above-described plastic lens was coated with a moisture-curable primer (product name: TR-SC-P, manufactured by Tokuyama Corporation) at a rotation frequency of 70 rpm for 15 seconds, followed by 1000 rpm for 10 seconds, using a spin coater (1H-DX2, manufactured by MIKASA CO., LTD), Subsequently, about 2 g of the photochromic curable composition obtained above was spin-coated at a rotation frequency of 60 rpm for 40 seconds, followed by 600 rpm for 10 to 20 seconds, to form a photochromic coating layer with a film thickness of 40 µm.
The lens with the surface coated with the photochromic curable composition (photochromic coating layer) was irradiated with light using a metal halide lamp with an output power of 200 mW/cm^2 in a nitrogen gas atmosphere for 90 seconds to cure the coating film. Subsequently, the lens was further heated at 110°C for 1 hour to prepare a photochromic laminate having a photochromic layer.
In the same manner as in Example 26, photochromic laminates were prepared using the photochromic compounds obtained in Examples 2 to 25.
• [1] Maximum Absorption Wavelength (λmax): The maximum absorption wavelength after color development, measured using a spectrophotometer (instantaneous multichannel photodetector MCPD3000) manufactured by Otsuka Electronics Co., Ltd. was used as an indicator for the color tone during the color development. • [2] 23°C Color Optical Density (A23): A difference between an absorbancy measured after light irradiation at 23°C for 300 seconds {ε(300)} and an absorbancy without light irradiation ε(0) at the maximum absorption wavelength was used as an indicator for the color optical density. […] 23°C color fading half-life [τ1/2 (sec.)]: A time required for the absorbancy of the sample at the maximum absorption wavelength to decrease to 1/2 of {ε(300)-ε(0)} when the light irradiation was terminated after the light irradiation at 23°C for 300 seconds, was used as an indicator for the color fading speed. The shorter this time, the higher the color fading speed. • [4] Residual rate (A120/A0×100): The obtained photochromic plastic lens was subjected to accelerated deterioration using a xenon weather meter X25 manufactured by Suga Test Instruments Co., Ltd. for 120 hours. Subsequently, the color optical density was evaluated before and after the test, then a color optical density before the test (A0) and a color optical density after the test (A120) were measured, and a ratio (A120/A0) was defined as a residual rate. The residual rate was used as an indicator for a color developing durability. […]

[2] = Photochromic properties of photochromic cured product prepared by kneading method; assay type: physicochemical; conditions: 1 mm cured product, 0.106 mmol per 100 g monomer, after 300 seconds irradiation at 23°C
Description: • [1] Maximum Absorption Wavelength (λmax): The maximum absorption wavelength after color development, measured using a spectrophotometer (instantaneous multichannel photodetector MCPD3000) manufactured by Otsuka Electronics Co., Ltd. was used as an indicator for the color tone during the color development. • [2] 23°C Color Optical Density (A23): A difference between an absorbancy measured after light irradiation at 23°C for 300 seconds {ε(300)} and an absorbancy without light irradiation ε(0) at the maximum absorption wavelength was used as an indicator for the color optical density. […] 23°C color fading half-life [τ1/2 (sec.)]: A time required for the absorbancy of the sample at the maximum absorption wavelength to decrease to 1/2 of {ε(300)-ε(0)} when the light irradiation was terminated after the light irradiation at 23°C for 300 seconds, was used as an indicator for the color fading speed. The shorter this time, the higher the color fading speed. • [4] Residual rate (A120/A0×100): The obtained photochromic plastic lens was subjected to accelerated deterioration using a xenon weather meter X25 manufactured by Suga Test Instruments Co., Ltd. for 120 hours. Subsequently, the color optical density was evaluated before and after the test, then a color optical density before the test (A0) and a color optical density after the test (A120) were measured, and a ratio (A120/A0) was defined as a residual rate. The residual rate was used as an indicator for a color developing durability. The higher the residual rate, the higher the color developing durability. The results of Examples 26, 50, and Comparative Examples 1 to 8 are summarized in Table 1, and the results of Examples 27 to 49 are summarized in Tables 2 and 3.
First, the photochromic compound obtained in Example 1, additives, and a polymerizable compound were mixed to obtain a curable composition.
As the polymerizable compound, a combination of the following polymerizable monomers was used. • 1,3-bis(isocyanatomethyl)cyclohexane: 36.7 parts by mass Pentaerythritol tetrakis(3-mercaptopropionate): 39.4 parts by mass • Polyoxyethylene polyoxypropylene lauryl ether (Wonder Surf 140 manufactured by Aoki Oil Industrial Co., Ltd.): 17.4 parts by mass • 1-decanethiol: 2.8 parts by mass • RX-1 adjusted according to the method described in Patent Document 13: 3.8 parts by mass
Note that the photochromic compound was added to the curable composition so that the amount of the photochromic compound was 0.106 mmol based on 100 g of the total amount of the polymerizable monomer. The following additives were used: Dimethyltin dichloride • : 0.05 part by mass • Irganox 245: 0.1 part by mass • 2-ethylhexyl 4-methoxycinnamate: 0.6 part by mass
The prepared curable composition was thoroughly defoamed, then injected into a glass mold having a 1 mm gap, and polymerized by cast polymerization. The polymerization was carried out in an air furnace while gradually raising the temperature from 27°C to 120°C over 18 hours. After the polymerization, the cured product was removed from the glass mold to obtain a photochromic cured product having a thickness of 1 mm. The obtained photochromic cured product was evaluated in the same manner as in Example 26.
(Examples 85 to 99, and Comparative Example 14 to 18) Photochromic cured products were prepared using photochromic compounds presented in Tables 6 and 7 in the same manner as in Example 84. The results of Examples 84 and 85 and Comparative Examples 14 to 18 are summarized in Table 6, and the results of Examples 86 to 99 are summarized in Table 7.

Compound: CCCC1(CCC)c2ccccc2-c2c1c1c(c3cc(OC)c(-c4ccc(OC)cc4OC)cc23)OC(c2ccc(C)cc2)(c2ccc(N(C)c3ccccc3)cc2)C=C1 (stereo not drawn) [Example 19]
- 23°C color fading half-life [1]: 1.55 min
- 23°C color fading half-life [2]: 2.17 min
- 23°C color fading half-life ([2]; listed as Formula (80)): 2.18 min
